According to paper PMC12820563, “FoxP3 forms a head-to-head dimer in vivo and stabilizes its multimerization on adjacent microsatellites”:
The other results are listed elsewhere or left out.

The sequences below were run against T1, MBP-FoxP1dN (Mus musculus, UniProt P58462 326-579) (assay: PD-seq (MBP pull-down with sequencing); 20 mM Tris-HCl pH 7.5, 100 mM NaCl, 1.5 mM MgCl2, 0.4 uM protein, 0.1 uM dsDNA library, 30 min, room temperature, amylose pull-down; high values mean tight binding). Details: protein: recombinant; tags: His6-MBP; chain copies: 2; dsDNA, one strand shown.
T1 sequence: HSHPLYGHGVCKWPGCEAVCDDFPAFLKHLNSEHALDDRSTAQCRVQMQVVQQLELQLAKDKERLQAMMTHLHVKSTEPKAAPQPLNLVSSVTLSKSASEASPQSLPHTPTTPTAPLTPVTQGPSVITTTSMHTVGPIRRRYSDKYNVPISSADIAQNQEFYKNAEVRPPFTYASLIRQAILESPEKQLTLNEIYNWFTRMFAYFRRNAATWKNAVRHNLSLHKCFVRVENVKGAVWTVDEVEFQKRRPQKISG
Summary of the method: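 E. coli-expressed mouse FoxP3 or FoxP1 fragment, N-terminus removed and tagged with His6-MBP, was used at 0.4 µM against 0.1 µM of a Klenow-filled degenerate double-stranded DNA library. After 30 min at room temperature in Tris pH 7.5 buffer with NaCl and MgCl2, complexes were pulled down on amylose resin and washed three times. Binding is pull-down over input reads-per-million enrichment from pooled replicates of the proteinase K-released, PCR-barcoded, Illumina-sequenced DNA.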

Sequence	binding signal
GATGATTGTTCTCCCAGCTGATGAATTCGTACCATCGAGTAAACAAATTTTCCTAATCTTTCTGTTCAAGCGCCATCTAC	0.934 RPM ratio (pull-down/input)
GATGATTGTTCTCCCAGCTGATGAATTGCACCCTTCGAGTAAACAAATTTTCCTAATCTTTCTGTTCAAGCGCCATCTAC	1.16 RPM ratio (pull-down/input)
GATGATTGTTCTCCCAGCTGATGAATTCAATCCGTCGAGTAAACAAATTTTCCTAATCTTTCTGTTCAAGCGCCATCTAC	0.914 RPM ratio (pull-down/input)
GATGATTGTTCTCCCAGCTGATGAATTCCATCGTTCGAGTAAACAAATTTTCCTAATCTTTCTGTTCAAGCGCCATCTAC	0.79 RPM ratio (pull-down/input)
GATGATTGTTCTCCCAGCTGATGAATTCCGGGACTCGAGTAAACAAATTTTCCTAATCTTTCTGTTCAAGCGCCATCTAC	0.775 RPM ratio (pull-down/input)
GATGATTGTTCTCCCAGCTGATGAATTTCGGGACTCGAGTAAACAAATTTTCCTAATCTTTCTGTTCAAGCGCCATCTAC	0.769 RPM ratio (pull-down/input)
GATGATTGTTCTCCCAGCTGATGAATTGCGGTGATCGAGTAAACAAATTTTCCTAATCTTTCTGTTCAAGCGCCATCTAC	1.06 RPM ratio (pull-down/input)
GATGATTGTTCTCCCAGCTGATGAATTCGTTAAGTCGAGTAAACAAATTTTCCTAATCTTTCTGTTCAAGCGCCATCTAC	0.908 RPM ratio (pull-down/input)
GATGATTGTTCTCCCAGCTGATGAATTCTATGGGTCGAGTAAACAAATTTTCCTAATCTTTCTGTTCAAGCGCCATCTAC	0.857 RPM ratio (pull-down/input)
GATGATTGTTCTCCCAGCTGATGAATTGTAGTAGTCGAGTAAACAAATTTTCCTAATCTTTCTGTTCAAGCGCCATCTAC	1.08 RPM ratio (pull-down/input)
GATGATTGTTCTCCCAGCTGATGAATTGTGTTGGTCGAGTAAACAAATTTTCCTAATCTTTCTGTTCAAGCGCCATCTAC	1.92 RPM ratio (pull-down/input)
GATGATTGTTCTCCCAGCTGATGAATTGGTAGCGTCGAGTAAACAAATTTTCCTAATCTTTCTGTTCAAGCGCCATCTAC	0.907 RPM ratio (pull-down/input)
GATGATTGTTCTCCCAGCTGATGAATTAGCGTTTTCGAGTAAACAAATTTTCCTAATCTTTCTGTTCAAGCGCCATCTAC	1.13 RPM ratio (pull-down/input)
GATGATTGTTCTCCCAGCTGATGAATTGGGTATATCGAGTAAACAAATTTTCCTAATCTTTCTGTTCAAGCGCCATCTAC	0.951 RPM ratio (pull-down/input)
GATGATTGTTCTCCCAGCTGATGAATTTATCAGCTCGAGTAAACAAATTTTCCTAATCTTTCTGTTCAAGCGCCATCTAC	1.01 RPM ratio (pull-down/input)
GATGATTGTTCTCCCAGCTGATGAATTCGGCTCTTCGAGTAAACAAATTTTCCTAATCTTTCTGTTCAAGCGCCATCTAC	0.806 RPM ratio (pull-down/input)

Sequence	binding signal
GATGATTGTTCTCCCAGCTGATGAATTCATTAATTCGAGTAAACAAATTTTCCTAATCTTTCTGTTCAAGCGCCATCTAC	0.983 RPM ratio (pull-down/input)
GATGATTGTTCTCCCAGCTGATGAATTCGGTAAGTCGAGTAAACAAATTTTCCTAATCTTTCTGTTCAAGCGCCATCTAC	0.945 RPM ratio (pull-down/input)
GATGATTGTTCTCCCAGCTGATGAATTATGTATGTCGAGTAAACAAATTTTCCTAATCTTTCTGTTCAAGCGCCATCTAC	1.34 RPM ratio (pull-down/input)
GATGATTGTTCTCCCAGCTGATGAATTTAGATAGTCGAGTAAACAAATTTTCCTAATCTTTCTGTTCAAGCGCCATCTAC	1.01 RPM ratio (pull-down/input)
GATGATTGTTCTCCCAGCTGATGAATTCCTCTGATCGAGTAAACAAATTTTCCTAATCTTTCTGTTCAAGCGCCATCTAC	0.844 RPM ratio (pull-down/input)
GATGATTGTTCTCCCAGCTGATGAATTGACTCGATCGAGTAAACAAATTTTCCTAATCTTTCTGTTCAAGCGCCATCTAC	0.903 RPM ratio (pull-down/input)
GATGATTGTTCTCCCAGCTGATGAATTGATGGACTCGAGTAAACAAATTTTCCTAATCTTTCTGTTCAAGCGCCATCTAC	0.913 RPM ratio (pull-down/input)
GATGATTGTTCTCCCAGCTGATGAATTCGTTAACTCGAGTAAACAAATTTTCCTAATCTTTCTGTTCAAGCGCCATCTAC	0.899 RPM ratio (pull-down/input)
GATGATTGTTCTCCCAGCTGATGAATTAGGGTCGTCGAGTAAACAAATTTTCCTAATCTTTCTGTTCAAGCGCCATCTAC	0.782 RPM ratio (pull-down/input)
GATGATTGTTCTCCCAGCTGATGAATTCAGCATGTCGAGTAAACAAATTTTCCTAATCTTTCTGTTCAAGCGCCATCTAC	0.834 RPM ratio (pull-down/input)
GATGATTGTTCTCCCAGCTGATGAATTCGCCCCCTCGAGTAAACAAATTTTCCTAATCTTTCTGTTCAAGCGCCATCTAC	0.768 RPM ratio (pull-down/input)
GATGATTGTTCTCCCAGCTGATGAATTGGGTATCTCGAGTAAACAAATTTTCCTAATCTTTCTGTTCAAGCGCCATCTAC	0.935 RPM ratio (pull-down/input)
GATGATTGTTCTCCCAGCTGATGAATTGTCTGTTTCGAGTAAACAAATTTTCCTAATCTTTCTGTTCAAGCGCCATCTAC	1.18 RPM ratio (pull-down/input)
GATGATTGTTCTCCCAGCTGATGAATTCGTTTCATCGAGTAAACAAATTTTCCTAATCTTTCTGTTCAAGCGCCATCTAC	0.885 RPM ratio (pull-down/input)
GATGATTGTTCTCCCAGCTGATGAATTCTTGATTTCGAGTAAACAAATTTTCCTAATCTTTCTGTTCAAGCGCCATCTAC	1.33 RPM ratio (pull-down/input)
GATGATTGTTCTCCCAGCTGATGAATTAGTGCTTTCGAGTAAACAAATTTTCCTAATCTTTCTGTTCAAGCGCCATCTAC	1.15 RPM ratio (pull-down/input)
